Assay results as given in the supplement of paper PMC4967469.
The IC50 comes from the fitted curve, where viability falls to half of the control; where the fit passes the top or lowest dose, that dose stands as a limit. For AUC the same curve is integrated over the 256-fold range of doses and scaled to a fraction; it is 1 without any effect and falls as sensitivity rises. For part of these data: A top dose marked as inferred was derived from the fitted curves, not read from the paper. For part of these data: Drugs with an entry number were screened twice under separate entries, and the two screens often disagree.

Columns and labels:
Assay in all cases: Viability of human cancer cell lines after 72 h of drug (GDSC screen)
NVP-TAE684 = compound: COc1cc(N2CCC(N3CCN(C)CC3)CC2)ccc1Nc1ncc(Cl)c(Nc2ccccc2S(=O)(=O)C(C)C)n1 [NVP-TAE684]; conditions: top dose 2 µM
Protocol: (§1)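 Human cancer cell lines in 384-well plates, medium with 10% serum, drug for 72 h over a 256-fold dose range (nine 2-fold or five 4-fold steps up to the top dose). Adherent lines were fixed and stained with the nucleic acid dye Syto60, suspension lines read with resazurin; signal relative to control wells, capped at 0 and 100%. One two-parameter sigmoid per drug and line, fitted in a mixed model over all curves with the slope shared within a line.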

CGP-60474 = compound: OCCCNc1cc(-c2ccnc(Nc3cccc(Cl)c3)n2)ccn1 [CGP-60474]; conditions: top dose 0.256 µM; top dose inferred
Protocol: as §1

Docetaxel = compound: CC(=O)O[C@@]12CO[C@@H]1C[C@H](O)[C@@]1(C)C(=O)[C@H](O)C3=C(C)[C@@H](OC(=O)[C@H](O)[C@@H](NC(=O)OC(C)(C)C)c4ccccc4)C[C@@](O)([C@@H](OC(=O)c4ccccc4)[C@H]21)C3(C)C [Docetaxel]; conditions: top dose 0.0125 µM
Protocol: as §1

FTI-277 = compound: COC(=O)[C@H](CCSC)NC(=O)c1ccc(NC[C@@H](N)CS)cc1-c1ccccc1 [FTI-277]; conditions: top dose 1.024 µM; top dose inferred
Protocol: as §1

JNK Inhibitor VIII = compound: CCOc1nc(NC(=O)Cc2cc(OC)ccc2OC)cc(N)c1C#N [JNK Inhibitor VIII]; conditions: top dose 10 µM; top dose inferred
Protocol: as §1

Belinostat = compound: O=C(/C=C/c1cccc(S(=O)(=O)Nc2ccccc2)c1)NO [Belinostat]; conditions: top dose 20 µM; top dose inferred
Protocol: as §1

NSC-207895 = compound: CN1CCN(c2ccc([N+](=O)[O-])c3no[n+]([O-])c23)CC1 [NSC-207895]; conditions: top dose 20 µM; top dose inferred
Protocol: as §1

JNJ-26854165 = compound: c1ccc2c(CCNc3ccc(Nc4ccncc4)cc3)c[nH]c2c1 [JNJ-26854165]; conditions: top dose 10 µM
Protocol: as §1

OSI-906 = compound: C[C@]1(O)C[C@@H](c2nc(-c3ccc4ccc(-c5ccccc5)nc4c3)c3c(N)nccn32)C1 [OSI-906]; conditions: top dose 2.56 µM; top dose inferred
Protocol: as §1

SB-715992 = compound: Cc1ccc(C(=O)N(CCCN)[C@@H](c2nc3cc(Cl)ccc3c(=O)n2Cc2ccccc2)C(C)C)cc1 [SB-715992]; conditions: top dose 0.128 µM; top dose inferred
Protocol: as §1

YM155 = compound: COCC[n+]1c2c(n(Cc3cnccn3)c1C)C(=O)c1ccccc1C2=O [YM155]; conditions: top dose 5.12 µM
Protocol: as §1

Cyclopamine = compound: CC1=C2C[C@H]3[C@@H](CC=C4C[C@@H](O)CC[C@@]43C)[C@@H]2CC[C@]12O[C@@H]1C[C@H](C)CN[C@H]1[C@H]2C [Cyclopamine]; conditions: top dose 16 µM; top dose inferred
Protocol: as §1

AMG-706 = compound: CC1(C)CNc2cc(NC(=O)c3cccnc3NCc3ccncc3)ccc21 [AMG-706]; conditions: top dose 2 µM; top dose inferred
Protocol: as §1

JQ1 = compound: Cc1sc2c(c1C)C(c1ccc(Cl)cc1)=N[C@@H](CC(=O)OC(C)(C)C)c1nnc(C)n1-2 [JQ1]
Protocol: as §1

[1] = top dose 1 µM, screen: GDSC drug entry 1218, top dose inferred
[2] = top dose 2.56 µM, screen: GDSC drug entry 163

Row | Cell Line | AUC (NVP-TAE684) | IC50 (NVP-TAE684) [nM] | AUC (CGP-60474) | IC50 (CGP-60474) [nM] | AUC (Docetaxel) | IC50 (Docetaxel) [nM] | AUC (FTI-277) | IC50 (FTI-277) [nM] | AUC (JNK Inhibitor VIII) | IC50 (JNK Inhibitor VIII) [µM] | AUC (Belinostat) | IC50 (Belinostat) [nM] | AUC (NSC-207895) | IC50 (NSC-207895) [µM] | AUC (JNJ-26854165) | IC50 (JNJ-26854165) [µM] | AUC (OSI-906) | IC50 (OSI-906) [nM] | AUC (SB-715992) | IC50 (SB-715992) [nM] | AUC (YM155) | IC50 (YM155) [nM] | AUC (Cyclopamine) | IC50 (Cyclopamine) [µM] | AUC (AMG-706) | IC50 (AMG-706) [nM] | AUC (JQ1; [1]) | IC50 (JQ1; [1]) [nM] | AUC (JQ1; [2]) | IC50 (JQ1; [2]) [nM]
1 | SF539 (glioma, adherent) | 0.067 | < 7.81 | 0.747 | 74.8 | 0.388 | 0.399 | 0.989 | > 1020 | 0.963 | > 10 | 0.699 | 4240 | 0.926 | > 20 | 0.848 | 6.31 | 0.987 | > 2560 | 0.84 | 75.5 | 0.839 | 2990 | 0.945 | > 16 | 0.952 | > 2000 | 0.985 | > 1000 | 0.948 | > 2560
2 | SJSA-1 (bone, adherent) | 0.748 | 715 | 0.654 | 45.3 | 0.508 | 0.822 | 0.874 | > 1020 | 0.982 | > 10 | 0.546 | 1700 | 0.979 | > 20 | 0.931 | > 10 | 0.733 | 815 | 0.688 | 29 | 0.26 | 59.6 | 0.966 | > 16 | 0.959 | > 2000 | 0.981 | > 1000 | 0.553 | 228
3 | SK-MM-2 (myeloma, suspension) | 0.712 | 513 | 0.777 | 108 | 0.987 | > 12.5 | 0.969 | > 1020 | 0.986 | > 10 | 0.579 | 2080 | 0.956 | > 20 | 0.941 | > 10 | 0.732 | 758 | 0.908 | > 128 | 0.542 | 419 | 0.982 | > 16 | 0.987 | > 2000 | 0.986 | > 1000 | 0.529 | 193
4 | SNU-C1 (large intestine, suspension) | 0.564 | 203 | 0.906 | > 256 | 0.931 | > 12.5 | 0.979 | > 1020 | 0.978 | > 10 | 0.566 | 2060 | 0.98 | > 20 | 0.912 | > 10 | 0.72 | 915 | 0.947 | > 128 | 0.68 | 1290 | 0.98 | > 16 | 0.979 | > 2000 | 0.852 | > 1000 | 0.766 | 1410
